Laboratory results: patent US11299538B2, “Anti-IGF antibodies” (Boehringer Ingelheim International GmbH, priority 2008, dated 2022)

Key:
[1] = biological target: T1, Mouse IGF-1 (Mus musculus, UniProt P05017); assay: direct immunosorbent assay (ELISA) binding titration; conditions: FIG. 1B
T1 construct: Insulin-like growth factor-1 (IGF-1; a 70 amino-acid polypeptide); purchased R&D Systems 791-MG
Method: (§1) Fully human IgG1 antibodies that bound with high affinity to IGF-1 are also tested for binding to human IGF-1 in direct immunosorbent assays (ELISA). Assays are performed by coating human IGF-1 (R&D Systems, No. 291-G1) to 96-well Maxisorb plates at a concentration of 0.5 μg/ml overnight at 4° C. (100 μl/well). Coating buffer alone is used as a control for unspecific binding. Wells are then washed once with washing buffer (1×TBS-T) and residual binding sites are blocked with 200 μl blocking buffer for 1 hour at room temperature on an orbital shaker followed by a further wash cycle. Serial three-fold dilutions of each test antibody in blocking buffer are prepared directly on the coated plates. Typical concentrations used are 50, 16.6, 5.6, 1.8, 0.6, 0.2, and 0.07 ng/ml. Blocking buffer alone is used as a positive control. The plates are then incubated for 2 hours at room temperature with agitation. After three wash cycles 100 μl/well of HRPO-conjugated anti-human IgG secondary reagent (Jackson ImmunoResearch Inc.) diluted in blocking buffer is added to all wells. After 2 hours incubation at room temperature with agitation the plates are washed three-times and 100 μl/well of TMB substrate solution (equal amounts of solution A and B) are pipetted into all wells. The plates are incubated for 10-20 min at RT with agitation and then the reaction is stopped by addition of 100 μl/well 1 M phosphoric acid. The absorbance is measured at a wavelength of 450 nm (reference 650 nm).
(§2) Binding of the fully human IGF-1 binding IgG1 antibodies to mouse IGF-1 (R&D Systems, No. 791-MG), rat IGF-1 (IBT, No. RU100), human IGF-2 (GroPep, No. FM001), mouse IGF-2 (R&D Systems, No. 792-MG), rat IGF-2 (IBT, No. AAU100), and human insulin (Roche) is also tested as described above for human IGF-1 (except that the concentration of human insulin used for coating is 3 μg/ml).

[2] = biological target: T2, Rat IGF-1 (Rattus norvegicus, UniProt P08025); assay: as above; conditions: FIG. 1C
T2 construct: Insulin-like growth factor-1 (IGF-1; a 70 amino-acid polypeptide)
Method: as §1, §2

[3] = biological target: T3, human insulin (Homo sapiens, UniProt P01308); assay: as above; conditions: highest concentration tested, 50 ng/ml; FIG. 1G
T3 construct: purchased Roche
Method: as §1, §2

[4] = biological target: T4, Mouse IGF-2 (Mus musculus, UniProt P09535); assay: as above; conditions: murine IGF-2; FIG. 1E
T4 construct: insulin-like growth factor-2 (IGF-2; a 67 amino-acid polypeptide)
Method: as §1, §2

[5] = biological target: T5, Rat IGF-2 (Rattus norvegicus, UniProt P01346); assay: as above; conditions: FIG. 1F
T5 construct: insulin-like growth factor-2 (IGF-2; a 67 amino-acid polypeptide)
Method: as §1, §2

[6] = biological target: T6, Human IGF-2 (Homo sapiens, UniProt P01344); assay: as above; conditions: FIG. 1D
T6 construct: insulin-like growth factor-2 (IGF-2; a 67 amino-acid polypeptide)
Method: as §1, §2

[7] = test system: phosphorylation of AKT; assay: Western blot analysis of phosphorylated AKT in SK-ES-1 cells; type: cell-based; conditions: 24 hours, 100 nM doses, FIG. 9
Method: (§3) 24 hours later the cells are lysed and the cell lysate frozen after the protein concentration is determined by Bradford assay. Western blotting is performed by applying 30 μg of protein lysates to an SDS PAGE gel (BioRad) and the gel blotted on a Citerian gel blotting sandwich. Western blots are incubated overnight with a rabbit anti-beta actin (control) antibody, a rabbit anti-PTEN antibody (Cell Signaling #9559), or a rabbit anti-phospho-pAKT antibody (Cell Signaling #4060), at 1:5000 (anti-beta actin), 1:1000 (anti-PTEN), or 1:2000 (anti-phosphoAKT) dilutions in 1% milk powder. Following washing in TBS an anti-rabbit IgG HRPO-conjugated secondary antibody (Amersham) is applied for 1 hour and after further washes in TB S antibody reactivity is detected by ECL and captured on Hyperfilm (Amersham).

[8] = test system: TC-71 cells; assay: Ewing's sarcoma-derived cell line growth assay; type: cell-based; conditions: medium containing 10% FCS; relative to humanized IgG1 isotype control; FIG. 5
Method: (§4) The typical concentrations used are 30, 10, 3.3, 1.1, 0.37, and 0.12 μg/ml (or 100, 10, 1, 0.1, 0.01, 0.001 nM rapamycin and test antibody for combination studies) and each dilution is performed in triplicate wells. The cells plus antibody are then incubated for 120 hours after which time the relative cell number in each well is determined using the CellTiter-Glo luminescent cell viability assay (Promega). Luminescence (LU=Luminescence Units) is recorded using a XFluor GENios Pro 4 and for data analysis the mean value from triplicate wells is taken and fitted by iterative calculations using a sigmoidal curve analysis program (Graph Pad Prism) with variable Hill slope.

[9] = test system: PTEN; assay: Western blot analysis of PTEN levels in SK-ES-1 cells; type: cell-based; conditions: 24 hours, 100 nM doses, FIG. 9
Method: as §3

[10] = test system: total serum IGF-1; assay: effect on total murine serum IGF-1 levels; type: in vivo, athymic NMRI nude mice; conditions: mice; 24 hours post single i.v. doses of 25, 12.5, 6.25, 3.13 mg/kg; FIG. 6
Method: (§5) Single intravenous (bolus) administrations of 25, 12.5, 6.25, and 3.13 mg/kg of test IGF antibody are given to female athymic NMRI nude mice, 6-8 weeks old (n=5). Single 10 minute intravenous administrations of 30, 100, 200 mg/kg of antibody 60819 are given to male and female Wistar Han rats, 6-8 weeks old (n=4 male, 4 female). Prior to antibody treatment and 24 hours post administration a blood sample is taken, serum collected, and total murine or rat IGF-1 levels determined using the OCTEIA rat/mouse total IGF-1 immunocytometric assay. The assay is performed according to the manufacturer's instructions, absorbance is measured at 450 nm and evaluated using the SoftMax Pro software. A standard curve is used to determine the serum concentration of total IGF-1 in ng/ml. Statistical analysis is performed using the GraphPad Prism software.

[11] = test system: total serum IGF-1; assay: effect on total rat IGF-1 levels; type: in vivo, Wistar Han rats; conditions: rats; 24 hours post single 10 minute i.v. infusion of 30, 100, 200 mg/kg; FIG. 7
Method: as §5

[12] = test system: NSCLC-derived cell line A-549; assay: in vitro combination of anti-IGF antibody with EGFR inhibitor, proliferation; type: cell-based; conditions: 10% FCS containing growth medium; FIG. 10
[13] = test system: SK-ES-1 cells; assay: Ewing's sarcoma-derived cell line growth assay, combination with rapamycin; type: cell-based; conditions: 100 nM (each agent), FIG. 8
Method: as §4

T6 sequence (P01344 25-91 limits assumed): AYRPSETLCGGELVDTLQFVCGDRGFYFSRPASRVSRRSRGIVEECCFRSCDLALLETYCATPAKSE
T5 sequence (P01346 25-91 limits assumed): as the sequence (P01344 25-91 limits assumed) above, with G22S, A32S, V35A, S36N counted along it
T4 sequence (P09535 25-91 limits assumed): as the sequence (P01344 25-91 limits assumed) above, with R3G, S5G, G22S, A32S, V35A, S36N counted along it
T3 sequence (P01308 25-54 limits assumed): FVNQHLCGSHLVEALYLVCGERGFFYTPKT
T3 sequence (P01308 90-110 limits assumed): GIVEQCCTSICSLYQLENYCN
T2 sequence (P08025 49-118 limits assumed): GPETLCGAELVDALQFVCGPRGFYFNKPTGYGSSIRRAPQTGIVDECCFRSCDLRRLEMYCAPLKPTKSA
T1 sequence (P05017 49-118 limits assumed): as the sequence (P08025 49-118 limits assumed) above, with S69A counted along it

- ELISA binding [1]: comparable cross-reactive binding
- ELISA binding [2]: comparable cross-reactive binding
- ELISA reactivity to human insulin [3]: no reactivity
- ELISA binding [4]: comparable cross-reactive binding
- ELISA binding [5]: comparable cross-reactive binding
- ELISA binding [6]: comparable cross-reactive binding
B1: 60814: fully human IgG1/Igλ anti-IGF antibody; heavy chain SEQ ID NO:35, light chain SEQ ID NO:36 (antibody, listed as Homo sapiens)
heavy: QVELVESGGGLVQPGGSLRLSCAASGFTFSNYWMHWVRQAPGKGLEWVSGISGWSSWTYYADSVKGRFTISRDNSKNTLYLQMNSLRAEDTAVYYCARFGIDAYTKVYFDYWGQGTLVTVSS[human IgG1 constant region left out here]
light: DIELTQPPSVSVAPGQTARISCSGDNIPLKYVSWYQQKPGQAPVLVIHDDNKRPSGIPERFSGSNSGNTATLTISGTQAEDEADYYCSSWDTLDIFNVFGGGTKLTVLGQPKAAPSVTLFPPSSEELQANKATLVCLISDFYPGAVTVAWKGDSSPVKAGVETTTPSKQSNNKYAASSYLSLTPEQWKSHRSYSCQVTHEGSTVEKTVAPTECS

- ELISA binding [1]: comparable cross-reactive binding
- ELISA binding [2]: comparable cross-reactive binding
- ELISA reactivity to human insulin [3]: no reactivity
- ELISA binding [4]: comparable cross-reactive binding
- ELISA binding [5]: comparable cross-reactive binding
- ELISA binding [6]: comparable cross-reactive binding
B2: 60819: fully human IgG1/Igλ anti-IGF antibody; heavy chain SEQ ID NO:37, light chain SEQ ID NO:38 (antibody, listed as Homo sapiens)
heavy: B1 heavy
light: B1 light with S88Q, W90Y, T92Y, L93F, D94P, I95K, N97V
- phosphorylation of AKT [7]: inhibited AKT phosphorylation
- effect on TC-71 cell proliferation [8]: dose-dependent inhibition
- total levels of PTEN [9]: do not affect
- serum total murine IGF-1 levels [10]: dose dependent elevation
- total rat IGF-1 levels [11]: dose dependent elevation
- effect on A-549 cell proliferation [12]: only a small effect
- proliferation inhibition [13]: around 60%

Substitutions are numbered along the chain they refer to. One block for each molecule: values may come before it.
